From paper PMC11269665
No constants are given. Whether binding was seen depends on the method and setting. For some of these results: Binding seen in cells or lysates may run through a third protein. Some binding calls cover weakened binding; strength is not graded here. Values belong to the substance of their own block, whether it stands above or below them.

Amino acid sequences for entries named in this document (tags omitted). A change or cut given only in a name is not applied to a line headed by its entry. Residues count along the entry.
UniProt Q9Y6K9: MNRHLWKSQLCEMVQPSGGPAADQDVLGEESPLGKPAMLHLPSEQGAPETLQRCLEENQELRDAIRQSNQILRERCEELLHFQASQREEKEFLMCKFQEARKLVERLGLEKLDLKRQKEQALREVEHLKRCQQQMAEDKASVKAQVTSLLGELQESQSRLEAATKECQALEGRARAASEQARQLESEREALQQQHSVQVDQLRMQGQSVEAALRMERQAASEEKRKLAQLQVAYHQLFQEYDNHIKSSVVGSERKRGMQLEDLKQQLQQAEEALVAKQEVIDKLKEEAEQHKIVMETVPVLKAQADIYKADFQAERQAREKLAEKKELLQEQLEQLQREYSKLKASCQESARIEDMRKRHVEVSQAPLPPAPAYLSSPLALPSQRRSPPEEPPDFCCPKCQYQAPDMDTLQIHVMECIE
GST-NEMO (120-419aa) fusion protein: residues 120-419 of Q9Y6K9
UniProt Q14532: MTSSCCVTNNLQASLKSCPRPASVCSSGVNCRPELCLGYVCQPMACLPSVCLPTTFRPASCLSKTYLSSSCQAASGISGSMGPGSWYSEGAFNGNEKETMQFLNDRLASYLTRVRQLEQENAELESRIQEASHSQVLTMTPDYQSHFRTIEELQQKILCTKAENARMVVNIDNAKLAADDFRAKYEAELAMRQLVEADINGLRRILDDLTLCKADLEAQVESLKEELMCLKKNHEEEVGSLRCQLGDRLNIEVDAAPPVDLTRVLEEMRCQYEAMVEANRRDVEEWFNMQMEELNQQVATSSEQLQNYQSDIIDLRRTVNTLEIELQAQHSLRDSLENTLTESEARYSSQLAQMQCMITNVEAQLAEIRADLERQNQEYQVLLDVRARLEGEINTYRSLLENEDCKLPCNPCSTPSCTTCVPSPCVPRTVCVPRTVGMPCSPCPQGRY
UniProt P25963: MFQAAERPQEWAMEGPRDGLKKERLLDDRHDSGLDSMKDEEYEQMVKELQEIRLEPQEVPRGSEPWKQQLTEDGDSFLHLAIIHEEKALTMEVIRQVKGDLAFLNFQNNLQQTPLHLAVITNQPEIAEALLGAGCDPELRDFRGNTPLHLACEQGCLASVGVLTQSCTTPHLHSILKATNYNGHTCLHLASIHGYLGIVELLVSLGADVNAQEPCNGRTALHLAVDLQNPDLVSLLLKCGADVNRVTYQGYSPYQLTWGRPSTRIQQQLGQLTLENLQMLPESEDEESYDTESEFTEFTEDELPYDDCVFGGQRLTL

How the values were obtained:
[1] = target: NEMO (endogenous) (human (endogenous in primary keratinocytes, Ker-CT and skin)) (UniProt Q9Y6K9); experiment: co-IP; endogenous; anti-NEMO antibody and Protein A/G-Agarose, overnight at 4 °C, Nonidet P-40 lysates of primary keratinocytes and Ker-CT cells
[2] = target: NEMO (endogenous) (human (endogenous in primary keratinocytes, Ker-CT and skin)) (UniProt Q9Y6K9); experiment: proximity ligation; Duolink PLA on 3 μm paraffin sections of normal human adult skin; anti-NEMO and anti-KRT32
[3] = target: NEMO (endogenous) (human (endogenous in primary keratinocytes, Ker-CT and skin)) (UniProt Q9Y6K9); experiment: proximity ligation; Duolink PLA on fixed primary keratinocytes and Ker-CT cells; anti-NEMO and anti-KRT32; IgG as negative control
[4] = target: GST-NEMO (120-419aa) fusion protein (UniProt Q9Y6K9); experiment: pull-down; GST-NEMO (120-419aa) incubated with excess E. coli extracts containing His-KRT32 (wildtype or six mutants), His-IKKα and His-IKKβ; glutathione-Sepharose beads; Western blot; competition; only the target purified
[5] = target: GST-NEMO fusion protein (UniProt Q9Y6K9); experiment: pull-down; GST-NEMO fusion protein incubated with E. coli extracts containing WT or mutant His-KRT32; glutathione-agarose beads; Western blot; only the target purified
[6] = target: GST-KRT32 (human) (UniProt Q14532); experiment: pull-down; GST-KRT32 incubated 12 h with excess His-tagged NEMO, IKKα, IKKβ or IκBα, glutathione-Sepharose beads, Western blot with anti-GST and anti-His; both purified
[7] = target: NEMO (endogenous) (human (endogenous in primary keratinocytes, Ker-CT and skin)) (UniProt Q9Y6K9); experiment: proximity ligation; Duolink PLA on fixed Ker-CT cells overexpressing Flag-tagged KRT32 wildtype or mutations; anti-Flag and anti-NEMO; foci per cell counted
[8] = target: Flag-tagged NEMO (UniProt Q9Y6K9); experiment: co-IP; HEK293T co-transfected with HA-KRT32 and Flag-NEMO for 24 h, Nonidet P-40 lysis buffer, agarose-conjugated anti-DYKDDDDK for 2 h, Western blot
[9] = target: GST-KRT32 (human) (UniProt Q14532); experiment: pull-down; GST-KRT32 (GST as control) incubated with lysates of primary keratinocytes and Ker-CT cells, glutathione-Sepharose beads, Western blot with anti-NEMO; only the target purified

- binding [1]: binds
- binding [2]: binds
- binding [3]: binds
Substance: KRT32 (endogenous) (from UniProt Q14532 1-448)

- binding [4]: binds
- binding [5]: binds
Substance: His-KRT32 wild type (from UniProt Q14532 1-448)

- binding [6]: no binding
Substance: His-tagged IκBα (from UniProt P25963 1-317)

- binding [7]: binds
Substance: Flag-tagged KRT32 wildtype (from UniProt Q14532 1-448)

- binding [8]: binds
Substance: HA-KRT32 (from UniProt Q14532 1-448)

- binding [6]: binds
Substance: His-tagged NEMO (from UniProt Q9Y6K9 1-419)

- binding [9]: binds
Substance: NEMO (endogenous) (from UniProt Q9Y6K9 1-419)
